# Results as given in PubChem BioAssay AID686979 (National Center for Advancing Translational Sciences (NCATS), 2013).
# About 50,000 (12%) of roughly 420,000 compounds were called active. The inconclusive results got no clear call from the source; some entries with a clear call stand among them for comparison. The call rests on the fitted dose curve; in most records, active means well fitted inhibition curve with a large enough effect; inconclusive means small, poorly fitted or top-dose-only effect; inactive means flat fitted curve, though single readings scatter. Potencies of inconclusive entries are left out as doubtful fits.
# Assay: qHTS for Inhibitors of human tyrosyl-DNA phosphodiesterase 1 (TDP1): qHTS in cells in presence of CPT; further: nearly all actives have a fitted effect of over 55% in size
# Details: chicken DT40 Tdp1-/-;hTDP1 cells + 20 nM CPT, ATP luminescence, 48 h; series mostly up to 46.2 µM
# Summary of the method: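 Chicken DT40 Tdp1-/- cells complemented with human TDP1, 400 cells/well, exposed to compounds plus 20 nM camptothecin for at least 48 h at 37 C; viability read as ATP content by CellTiter-Glo luminescence.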
# Potency means the concentration at half of the fitted maximal effect; tags describe the fitted curve by direction and shape.
row,SMILES,Potency
1,CCn1c(SCc2nc(-c3ccc(Cl)cc3)no2)nnc1-c1ccco1,"inconclusive [inhibitor, partial curve, poor fit]"
2,O=c1oc2cc(Oc3ccc(C(F)(F)F)cc3[N+](=O)[O-])ccc2c2c1CCCC2,"inconclusive [inhibitor, single point]"
3,C#CC[N+](C)(C)CC#Cc1ccc(Cl)cc1,inactive
4,CCOC(=O)Cc1csc(NC(=O)CN2CCN(c3ccccc3)CC2)n1,inactive
5,Cc1ccc(CN2CC(C(=O)N3CCN(S(=O)(=O)c4cccc(F)c4)CC3)CC2=O)cc1 (stereo not given),inactive
6,COc1cc2c(cc1N)-c1ccc(N)cc1C2=O,"inconclusive [inhibitor, single point]"
7,Cc1ccccc1NC(=O)C1C2C=CC(C3CC23)C1C(=O)O (stereo not given),"inconclusive [inhibitor, partial curve, poor fit]"
8,Cc1ccc(Cl)cc1N1CCN(C(=O)c2cc(S(=O)(=O)N3CCCCC3)cn2C)CC1,active: 13 µM
9,COc1ccc(C(=O)Oc2ccc(C3NC(=O)c4c(sc5c4CCN(C)C5)N3)cc2OC)cc1 (stereo not given),"inconclusive [inhibitor, single point]"
10,Cc1ccc(C(=O)NC(=S)Nc2cccc(-c3nc4ccccc4s3)c2)cc1,"inconclusive [inhibitor, single point]"
11,COCC(C)Nc1ncnc2c1cnn2-c1cccc(Cl)c1 (stereo not given),"inconclusive [inhibitor, partial curve, poor fit]"
12,Cc1cc(C)cc(OCC(=O)N2N=C(C(F)(F)F)CC2(O)C(C)(C)C)c1 (stereo not given),"inconclusive [inhibitor, single point]"
13,Cc1ccc(C(c2nnnn2C2CCCC2)N2c3ccccc3CC2C)cc1 (stereo not given),"inconclusive [inhibitor, single point]"
14,O=C(NCc1ccccc1)c1cc(C2COCCN2C(=O)OCCF)on1 (stereo not given),inactive
15,CC(=O)c1ccc(S(=O)(=O)NCc2ccc(C(=O)N(C)CC(=O)Nc3cccc(F)c3)cc2)cc1,"inconclusive [inhibitor, partial curve]"
16,Cc1cccc(C)c1Nc1sc(C(=O)c2ccccc2)c(N)c1C(=O)Nc1ccc(F)cc1,"inconclusive [inhibitor, single point]"
17,Cc1ccc(-c2csc(NCCc3nc4cc(Cl)c(Cl)cc4n3CCCO)n2)cc1,"inconclusive [inhibitor, single point]"
18,CCOC(=O)C1=C(C)N(C[C@@H]2CC[C@@H](Cc3ccc(-c4ccccc4)cc3)O2)C(=O)NC1c1ccc(Cl)cc1 (stereo not given in full),"inconclusive [inhibitor, single point]"
19,O=C(Nc1nnc(CCc2ccccc2)s1)c1cccc(F)c1,inactive
20,O=C1OCCC1(c1ccccc1)c1ccccc1,"inconclusive [inhibitor, full curve, poor fit]"
21,O=C(Nc1nnc([C@H]2C[C@H](O)[C@@H](CO)O2)s1)c1ccccc1F,inactive
22,Cc1cccc(OCc2nc3c4c(ncn3n2)-c2ccccc2CC42CCCC2)c1,"inconclusive [inhibitor, single point]"
23,Cc1ccc(S(=O)(=O)N(C)C)cc1NC(=O)C(C)N(C)CCOc1ccc(Cl)cc1 (stereo not given),"inconclusive [inhibitor, single point]"

row,SMILES,Potency
1,COc1ccc(C(C(=O)Nc2c(C)cccc2C)N2CCN(c3ccc(C)cc3)CC2)cc1 (stereo not given),"inconclusive [inhibitor, single point]"
2,C=C1C=C(C)n2ncc(C(=O)NCCCCCC)c2N1,inactive
3,CS(=O)(=O)N1CCc2cc(C(=O)Nc3ccccc3Cl)ccc21,inactive
4,O=C(Nc1nc2n(n1)C(c1ccccc1)C=C(c1ccccc1)N2)c1ccc(Cl)c([N+](=O)[O-])c1 (stereo not given),active: 11.6 µM
5,O=C(CSc1nnc(-c2cccnc2)n1-c1ccc(SC(F)F)cc1)N1CCCc2ccccc21,"inconclusive [inhibitor, single point]"
6,O=C(Nc1nc2ccc(S(=O)(=O)N3CCCCC3)cc2s1)c1cccnc1,inactive
7,COc1ccc(S(=O)(=O)Nc2cccc3ccc(O)cc23)cc1,active: 6.51 µM
8,CN(C)S(=O)(=O)c1cccc(C(=O)Nc2ccccc2C(=O)NC2CC2)c1,inactive
9,CCOC(=O)C(Cc1ccccc1)C(=O)Nc1ccc(N(CC)CC)cc1 (stereo not given),inactive
10,CCOc1ccc(NCC(=O)c2ccc(C)cc2)cc1,"inconclusive [inhibitor, single point]"
11,COc1cc2c(cc1OC)CN(C(=O)/C=C/c1ccc([N+](=O)[O-])cc1)CC2,active: 18.4 µM
12,CNC(=S)N/N=C/c1cn(CCOc2ccccc2OC)c2ccccc12,active: 3.66 µM
13,CCc1nc2c(OCC(=O)N3CCOCC3)cccn2c1N(C)C(=O)COc1ccccc1,inactive
14,COc1ccc(NC(=O)CCNC(=O)c2ccccc2Cl)cc1OC,inactive
15,CN(CC(=O)Nc1ccccc1Cl)C(=O)c1cc(C2CC2)nn1-c1ccccc1,"inconclusive [inhibitor, single point]"
16,Cc1ccc(NC(=O)c2c(C)oc3ccc(O)c(CN4CCCCCC4)c23)c(C)c1,active: 9.2 µM
17,Cc1ccc(C(=O)Cn2nnc(-c3ccccc3)n2)cc1,"inconclusive [inhibitor, single point]"
18,CCc1noc(C)c1C(=O)NC1CCCc2c1cnn2-c1cc(C)cc(C)c1 (stereo not given),"inconclusive [inhibitor, single point]"
19,O=c1oc2ccccc2c(Nc2ccc(O)cc2)c1[N+](=O)[O-],"inconclusive [inhibitor, partial curve]"
20,Cn1nccc1C(=O)N1CCCC(C(=O)c2cccc3ccccc23)C1 (stereo not given),"inconclusive [inhibitor, partial curve]"
21,Cc1ccc(-c2nc(CS(=O)CC(=O)NCCN3CCCC3)c(C)o2)cc1 (stereo not given),"inconclusive [inhibitor, single point]"
22,COc1cc(NC(=O)c2nnn(Cc3ccc(SC)cc3)c2N)cc(OC)c1,active: 18.4 µM
